# Measured values as given in the supplement of paper PMC11417369.
# ± gives the standard deviation of the averaged measurements. Some of the results follow.
# Tested on: PfAP2-G AP2 domain (GST-tagged)
# Assay: gcPBM binding intensity (ln(normalized median fluorescence intensity)); higher = stronger DNA binding
# Summary of the method: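 Plasmodium falciparum DNA-binding domains carrying a GST tag were expressed in E. coli and applied for 1 h, at about 25 μg on average, to an Agilent 4 × 180k array. The array held primer-extended double-stranded 36-bp intergenic genomic probes together with negative controls, and binding took place in 1× PBS with 1% milk, 0.2 mg/ml BSA, 0.5% salmon testes DNA and 0.03% Triton X-100. An Alexa488 anti-GST antibody detected bound protein, and the array was scanned at 488 nm. Binding intensity is taken as the highest Masliner-normalised natural-log median intensity across replicate spots of either probe orientation.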
row,Sequence,gcPBM binding intensity (ln)
1,AAATATATTTTTTTTTGTACTCAAAAAGAAAAAAAA [XGTACX_site8540],11.3 ± 0.83
2,ATAAAATTATATACTCGTACACAAAAAAAAAAAATA [XGTACX_site6035],11.4 ± 1
3,TATATAATAACATATGCATGCAAGTAATATAACCAA [TGCATGCA_site324],10.1 ± 0.099
4,TATAATATATATGTAACACACAAAAGTTATATACTT [CACACA_site2868],9.985 ± 0.064
5,AAAATAAATATAAAATGTACTTATATATATATATAT [XGTACX_site7803],10.9 ± 0.7
6,TATGAAGTGCACAATACACACTAATTCTATATAAAT [CACACA_site7269],10.5 ± 0.46
7,ATAATTAAATAAAAAAGTACACATACATCATAATGC [XGTACX_site7656],11.5 ± 0.87
8,CAATTAAAAAATAATACATGCATATAAATAGATATT [TGCATGCA_site427],9.72 ± 0.16
9,TAAGAATACGAAAGGTGTACACTGTGGAGACTTCAA [XGTACX_site2619],11.5 ± 0.83
10,ATATATTATATTTAAGTGCATTAATTAAAATGCTTA [GTGCAC_site9403],9.84 ± 0.14
11,AAAAAAAATCAGACAGGTACACATTCCATGTTCAAA [XGTACX_site5380],11.1 ± 0.69
12,CATTAATATATATATAGTACATATACACCTTCATTA [XGTACX_site8473],10.9 ± 0.53
13,TATTCATGCATATACACACACATATATTTATATTTT [CACACA_site7786],9.975 ± 0.078
14,TTGTGAATAACTAAGAAGAAAAAGATAAATATGTAT [TGCATGCA_negctrl_site388],9.93 ± 0.16
15,TTTTGTTATATTCAATATTTATATATTATAAATATA [CACACA_negctrl_site1705],9.955 ± 0.092
16,TTTTTCTTTTTTACAGTGCATAAATATATGTATTGT [GTGCAC_site9399],10.1 ± 0.32
17,AATAATATTGAAATGTGTACGTATTTATATTTTATG [XGTACX_site8252],11.6 ± 1
18,AGCCATTATAATTCTTGTACATAATATAGCTATTTT [XGTACX_site1723],10.8 ± 0.3
19,ATCATTGAAGTTAAAAATATAAAGTATTCAGAAGGG [XGTACX_negctrl_site560],10.2 ± 0.25

row,Sequence,gcPBM binding intensity (ln)
1,AATATATATATAGGATGTACACATAATTCAAATATA [XGTACX_site2755],11.4 ± 0.81
2,TCACTTTTATAATATAATATTCTATATCTTATTTTT [GTGCAC_negctrl_site717],9.74 ± 0.16
3,TTTTTTATTTTATTTTTTTCTGCTTATCCACATTAG [XGTACX_negctrl_site108],9.93 ± 0.44
4,GAGCACCAAAATATATGTACATATGATAAATGTGAA [XGTACX_site1130],11.3 ± 0.81
5,ACATATATATAATATATATTTTTCGTGTGGTGTCAC [CACACA_negctrl_site543],10.01 ± 0.028
6,TTATGGAGAGTTATATGTACGAAAAATATGTATAAG [XGTACX_site515],11 ± 0.59
7,AGAATTATTGTTAATGCATGTGGAAGTTAAAATATT [TGCATGCA_site188],10.03 ± 0.035
8,AATAAATTAAAACAGGTGCACTATATTACACACGCT,10.3 ± 0.25
9,TAGATACAGAAACACACACACACATACATATATACA [CACACA_site3437],10.01 ± 0.042
10,TATAATATATATTTGTGTCCACAACATTTTTAATAT [XGTACX_site2089],11.3 ± 0.73
11,TATTTAAATTGTAAGTGTACATATATAAATGTAAAA [XGTACX_site1609],11.3 ± 0.93
12,TATATAGTAATTTATTCACACAATTGGCACACCTCA [CACACA_site4679],10.2 ± 0.23
13,TTACGTATGTATTATGTTGTATATGAAATTAAAAAA [GTGCAC_negctrl_site292],10.04 ± 0.099
14,AAAAAAAACAGACACACACACATACACATACATACA [CACACA_site2857],10.2 ± 0.14
15,TAATTATGTACTATTATACACACGTTTAATTGTAAA [CACACA_site206],11.2 ± 0.77
16,TAGATACATACACGCACACACATATATAAATAAATA [CACACA_site6157],10.4 ± 0.45
17,TATAAAAAAATAATAAATAAATAAAAAGATTTCTTT [TGCATGCA_negctrl_site122],9.29 ± 0.34
18,AATAATATATGGTGTACACAAAAGTATAAATAATTT [CACACA_site5338],11.9 ± 1
19,TTATTATTAAGACACACACACAAAAAAAAAAAAAAA [CACACA_site6805],9.91 ± 0.54

row,Sequence,gcPBM binding intensity (ln)
1,TTTCCAATTAGTTTTGCATGTTGAAAAAATGTTGGA [TGCATGCA_site1035],9.81 ± 0.099
2,TAAAAAGGAAAACACACACACACATATATATATATA [CACACA_site3588],10.1 ± 0.45
3,ATTTTTAAGCATATCAAAAAAAAAAAAAAAATTAAT [CACACA_negctrl_site980],9.72 ± 0.22
4,TTACTAAAAATTATTAATAAATAATAATTATAAATT [GTGCAC_negctrl_site310],9.52 ± 0.028
5,TATCATAAACTTCCTTACTATACTTTTCTTATTCAT [CACACA_negctrl_site1341],10.1 ± 0.12
6,CTTTGTAGTATATTAACACACAACTATTTATAATAT [CACACA_site3934],9.99 ± 0.085
7,TATTTTAACTTCTCATGTACATATATTATGTCTATA [XGTACX_site249],11.1 ± 0.65
8,TTTCATGTTTTAAAGTGTACATAAATATATTATATG [XGTACX_site3367],11.5 ± 0.89
9,ACCATACATACATACACACACACACCCATATATATA [CACACA_site2917],10.3 ± 0.19
10,TTTTTAATAAAATGATTGATAATTATTAAATTAAAA [CACACA_negctrl_site488],9.45 ± 0.057
11,TTGTGTTTGCGTAAATGTACGGAAAGACTTGAAGAC [XGTACX_site7235],11 ± 0.64
12,TTGTTAGAGTATATTGAAAGGATAACCTTTTTTTAT [XGTACX_negctrl_site122],9.65 ± 0.11
13,TAACATATCTTTAATACACACTTAAAAAAGTACTTA [CACACA_site4532],11.3 ± 0.89
14,TTGATGTATACAATGTAGATTATTTAATATTTCAAT [GTGCAC_negctrl_site203],9.78
15,TTATATAACCCTCATGCATGCTAAGAAAAAAAAAAC [TGCATGCA_site936],10.2 ± 0.33
16,ATTTATATTATAATATGTACACAAAAAAAATTAGGA [XGTACX_site565],11.6 ± 0.95
17,GGAAACACAATATATACACACATATATATATATATA [CACACA_site235],9.98 ± 0.23
18,ACACTTAAATATTGTTGTACAAAATGATAAAATGTA [XGTACX_site4588],11.2 ± 0.7
